Test results as given in PubChem BioAssay AID1460 (National Center for Advancing Translational Sciences (NCATS), 2008).
Among all 270,000 compounds or so, about 5,800 (2.1%) were called active. The inconclusive results got no clear call from the source; some entries with a clear call stand among them for comparison. The call rests on the fitted dose curve; in most records, active means well fitted inhibition curve with a large enough effect; inconclusive means small, poorly fitted or top-dose-only effect; inactive means flat fitted curve, though single readings scatter. Potencies beside an inconclusive call are fits to weak or partial responses and may not hold up.

What follows are molecules tested against Microtubule-associated protein tau (Homo sapiens) (UniProt P10636) (assay: qHTS for Inhibitors of Tau Fibril Formation, Thioflavin T Binding). Conditions: recombinant tau K18 P301L (four-repeat tau fragment), heparin-induced fibrillization, ThT fluorescence; series mostly up to 57.4 µM.
Chain of UniProt P10636 (P10636 whole entry, looked up, the tested form may be a part): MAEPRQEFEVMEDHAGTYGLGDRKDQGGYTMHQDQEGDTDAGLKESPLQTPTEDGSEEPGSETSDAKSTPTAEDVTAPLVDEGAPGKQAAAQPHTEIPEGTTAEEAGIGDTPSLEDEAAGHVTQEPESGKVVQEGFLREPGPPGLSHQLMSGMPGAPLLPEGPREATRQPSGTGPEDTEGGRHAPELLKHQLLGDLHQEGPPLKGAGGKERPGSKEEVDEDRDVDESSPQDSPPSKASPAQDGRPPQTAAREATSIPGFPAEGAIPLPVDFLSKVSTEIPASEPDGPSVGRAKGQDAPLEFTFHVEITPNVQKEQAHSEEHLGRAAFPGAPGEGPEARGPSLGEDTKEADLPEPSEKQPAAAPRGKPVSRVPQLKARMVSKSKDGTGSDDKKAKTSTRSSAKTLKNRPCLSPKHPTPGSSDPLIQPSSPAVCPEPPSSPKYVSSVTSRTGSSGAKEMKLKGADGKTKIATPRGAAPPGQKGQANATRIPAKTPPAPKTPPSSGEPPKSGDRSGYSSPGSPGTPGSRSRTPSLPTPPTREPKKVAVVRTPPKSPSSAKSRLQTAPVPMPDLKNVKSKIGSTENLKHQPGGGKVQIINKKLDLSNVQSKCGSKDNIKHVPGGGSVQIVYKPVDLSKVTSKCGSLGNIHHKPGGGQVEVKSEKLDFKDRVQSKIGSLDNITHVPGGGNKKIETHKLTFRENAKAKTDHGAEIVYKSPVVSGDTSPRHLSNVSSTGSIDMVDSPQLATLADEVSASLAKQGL
In short: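 In this qHTS, human K18 P301L tau is incubated with compound and heparin for 6 hr at 37 C, and Thioflavin T fluorescence then reports fibril load.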
Further: nearly all actives have a fitted effect of over 55% in size.
Potency means the concentration at half of the fitted maximal effect; tags describe the fitted curve by direction and shape.

Structure (SMILES)	Potency
Cc1ccc(-c2nc3ccc(NS(=O)(=O)c4ccccc4)cc3[nH]2)o1	inconclusive: 7.08 µM [inhibitor, partial curve]
CCOC(=O)c1oc2c(O)c(O)ccc2c(=O)c1-c1nncn1-c1ccccc1	inactive
O=C(N/N=C/c1cccc([N+](=O)[O-])c1)c1cccs1	inconclusive: 17.8 µM [inhibitor, partial curve]
CCOc1ccc(-c2nonc2NC(=O)c2ccccc2C)cc1	inactive
COc1cccc(-n2nnnc2SCC(=O)N2CCCc3ccccc32)c1	inconclusive: 25.1 µM [inhibitor, partial curve]
CCOC(=O)C1=C(C)N(CC(C)C)C(=O)/C1=C\c1cccs1	inconclusive: 22.4 µM [inhibitor, partial curve, poor fit]
CCOC(=O)c1c(C)oc2c1c(C=NCCO)c(O)c1ccccc12	active: 12.6 µM
COc1ccc2c(Sc3ccccc3)c(C(=O)NCCN(C)C)[nH]c2c1	inconclusive: 22.4 µM [inhibitor, partial curve]
O=C(COC(=O)c1c(F)cccc1F)Nc1ccc2[nH]c(=O)[nH]c2c1	inconclusive: 22.4 µM [inhibitor, single point]
CCc1ccc(CN(Cc2ccco2)C(=O)c2cc(-c3ccc(Cl)cc3)on2)cc1	inactive
COc1cccc(-c2nc(SCc3cc(=O)c4cc(Cl)ccc4[nH]3)n[nH]2)c1	inactive
CSC1=N/C(=C/c2cccnc2)C(=O)N1Cc1ccc(Cl)cc1	inconclusive: 1.12 µM [inhibitor, partial curve]
O=C(CCN1C(=O)c2ccccc2C1=O)CN1CCOCC1	inactive
CCOC(=O)N1CCC(Nc2c(Nc3ccc(C)c(C)c3)c(=O)c2=O)CC1	inconclusive: 22.4 µM [inhibitor, partial curve]
Cc1ccc(C(=O)N/C(=C\c2ccc(-c3ccc([N+](=O)[O-])cc3)o2)C(=O)NC2CCS(=O)(=O)C2)cc1 (stereo not given)	active: 6.31 µM
Cc1ccc(NC(=S)NNC(=O)c2c([N+](=O)[O-])c(C)nn2C)cc1	inactive
COc1ccc(-n2cc(CNCCCn3ccnc3)c(-c3ccccc3Cl)n2)cc1	inconclusive: 44.7 µM [inhibitor, single point]
CC1(c2ccccc2)CC(C)(C)n2c(O)c(C3=NC(=S)NC3=O)c3cccc1c32 (stereo not given)	inconclusive: 1.41 µM [inhibitor, partial curve, poor fit]
CC(=O)N1CCN(CCN=CC2=C(O)CC(c3ccc(Cl)cc3)CC2=O)CC1 (stereo not given)	inactive
O=C1C2CC=C(Cl)CC2C(=O)N1CN(Cc1ccco1)CN1C(=O)C2CC=C(Cl)CC2C1=O (stereo not given)	inactive
O=C(Nc1cccc(S(=O)(=O)N2CCCC2)c1)c1ccc2c(=O)n3c(nc2c1)CCCCC3	inactive
Cc1ccc(C)c(OCCOCCn2c(-c3ccc(Br)cc3)nc3ccccc3c2=O)c1C	inactive
COc1ccc(C(=O)Nc2sc(C)c(C)c2CN2CCOCC2)cc1	inconclusive: 31.6 µM [inhibitor, partial curve, poor fit]

Structure (SMILES)	Potency
COc1ccc(Sc2nnc(Cc3ccccc3)c3ccccc23)cc1	inconclusive: 15.8 µM [inhibitor, partial curve]
COc1ccc(N2CCN(c3cc(C)c4ccccc4n3)CC2)cc1	inconclusive: 10 µM [inhibitor, partial curve]
Brc1ccc(Oc2ncc(CN3CCN(c4ccccc4)CC3)s2)cc1	inconclusive: 10 µM [inhibitor, partial curve]
CCc1cccc2c(C(=O)COC(=O)/C=C/c3ccc(O)c(OC)c3)c[nH]c12	inconclusive: 2.51 µM [inhibitor, full curve]
CC(C)Cc1nnc(NC(=O)CS(=O)(=O)Cc2ccccc2)s1	inconclusive: 39.8 µM [inhibitor, single point]
CC(C)c1ccc(C2CC(=O)N3CN(C)CSC3=C2C#N)cc1 (stereo not given)	active: 28.2 µM
Cc1ccc(C(=O)c2oc3ccccc3c2NC(=O)c2nc(S(C)(=O)=O)ncc2Cl)cc1F	inconclusive: 7.08 µM [inhibitor, partial curve]
CN(C)C(=S)Nc1ccc([N+](=O)[O-])cc1	inactive
CCOCCCNC(=S)NCCCNc1nc2ccc(C)cc2cc1C#N	inconclusive: 44.7 µM [inhibitor, partial curve, poor fit]
COc1cccc(NC(=O)CSc2nc(-c3ccccc3)nc3c2Cc2cc(Cl)ccc2O3)c1	inactive
CCC(=O)Oc1c(C(=O)CC)cc2c(C)cc(=O)oc2c1C	inactive
Nc1ncnc2c1c(-c1ccc(Oc3ccccc3)cc1)cn2C1CCCC1	inconclusive: 22.4 µM [inhibitor, partial curve, poor fit]
OCCN1CCOCCN(CCO)CCOCC1	inactive
CCCCCn1c(=O)[nH]c2cc(C(=O)NCc3ccc(C)cc3)ccc2c1=O	inactive
COc1ccc(S(=O)(=O)C(C#N)c2nc3ccccc3nc2N2CCC(C)CC2)cc1 (stereo not given)	inconclusive: 11.2 µM [inhibitor, partial curve]
Cc1csc2nc(-c3cccc(NC(=O)c4cccc(F)c4)c3)cn12	inactive
CCOc1ccc(N2C(=O)/C(=C/c3ccc(C)o3)N(C)C2=S)cc1	inconclusive: 28.2 µM [inhibitor, partial curve]
O=C(/C=C/c1ccco1)N1CCC(Cc2ccccc2)CC1	inconclusive: 20 µM [inhibitor, partial curve, poor fit]
CC(C)Oc1ccc(CCc2n[nH]c(=S)n2Cc2ccccc2)cc1	inconclusive: 12.6 µM [inhibitor, partial curve]
COc1ccccc1-n1cnc2c(c1=O)c1nc3ccccc3nc1n2CCc1ccccc1	inconclusive: 1.12 µM [inhibitor, partial curve, poor fit]
CCCCN(C)CCNC(=O)Cn1ncc2c3ccccc3n(CCC)c2c1=O	inactive
CCN(CC)c1ccc2cc(-c3nnc(-c4cccc(Cl)c4)o3)c(=O)oc2c1	inconclusive: 1.58 µM [activator, full curve]
